Some of the results follow. Values were computed here from the reads of four pooled replicates and scatter widely.

In this test the target is T1, Pho4 (S. cerevisiae) (UniProt P07270).
T1 sequence: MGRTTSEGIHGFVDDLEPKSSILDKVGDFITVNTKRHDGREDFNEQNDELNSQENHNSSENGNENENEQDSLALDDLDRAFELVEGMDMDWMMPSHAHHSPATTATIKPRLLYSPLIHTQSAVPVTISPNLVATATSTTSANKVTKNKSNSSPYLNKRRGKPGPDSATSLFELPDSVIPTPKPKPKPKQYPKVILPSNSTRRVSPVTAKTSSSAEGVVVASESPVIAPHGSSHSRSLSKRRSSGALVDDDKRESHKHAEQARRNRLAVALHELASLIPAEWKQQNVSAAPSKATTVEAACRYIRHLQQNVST
The experiment in a line: relative binding free energy (BET-seq); higher = weaker binding. As to conditions: reference: library average.
Regarding GTGGGCACGTGGATGA, the “relative binding free energy” value was 0.167 kJ/mol.
As for AGGTACACGTGATGGG, the figure is 0.46 kJ/mol; as for TGGGACACGTGATTAG, 0.377 kJ/mol.
As for TGTGGCACGTGCCATG, the “relative binding free energy” value is -0.879 kJ/mol.
Consider GGGTACACGTGTGAGC, for which the “relative binding free energy” value is 0.46 kJ/mol.
With TATTTCACGTGGGGTC, the “relative binding free energy” value was 1 kJ/mol.
For the sequence GATGGCACGTGTATGG, the “relative binding free energy” value turned out to be 0.46 kJ/mol.
Turning to TCTGTCACGTGGTGGG, the “relative binding free energy” value was 0.377 kJ/mol.
Regarding TTGCGCACGTGAGTCT, the “relative binding free energy” value was determined as 1.17 kJ/mol.
As for AGGGTCACGTGTCTAG, the figure is 0.962 kJ/mol; as for AGTGTCACGTGATATC, 1.09 kJ/mol; as for GGCGGCACGTGGGGGT, -0.544 kJ/mol.
As to GGTATCACGTGCCGGT, the “relative binding free energy” value amounted to 0.711 kJ/mol.
Consider ATAGTCACGTGTAGCT, for which the “relative binding free energy” value was 0.335 kJ/mol.
As for GTAGACACGTGTTTTA, the figure is 0.209 kJ/mol; as for GTGTTCACGTGCTAAG, 1.42 kJ/mol.
As for GTAATCACGTGGGATA, the “relative binding free energy” value worked out at 0.293 kJ/mol.
As for ATGTTCACGTGGGGGA, the “relative binding free energy” value came out at 0.209 kJ/mol.
For GTTTTCACGTGGGTTT, the “relative binding free energy” value was 1.09 kJ/mol.
Regarding TATTACACGTGTATGT, the “relative binding free energy” value was 0.335 kJ/mol.
As for TTAGGCACGTGACTAT, the figure is -0.335 kJ/mol.
As for TATCACACGTGTGGTG, the figure is 0.0418 kJ/mol; as for TGTTGCACGTGAAGTT, 1.13 kJ/mol.
For AGTGGCACGTGGACGA, the “relative binding free energy” value is -0.209 kJ/mol.
In the case of GGCATCACGTGGTGGG, the “relative binding free energy” value is 0.293 kJ/mol.
Turning to ATGTTCACGTGAAGGG, the “relative binding free energy” value worked out at 1.3 kJ/mol.
As for TGTAACACGTGGTCGG, the figure is -0.92 kJ/mol.
For TTCGTCACGTGACATT, the “relative binding free energy” value stood at 1.84 kJ/mol.
With GGTGCCACGTGCGGCG, the “relative binding free energy” value was -0.586 kJ/mol.
As for TTCTTCACGTGGTTGG, the figure is 0.962 kJ/mol.
For AGAGTCACGTGGCTTA, the “relative binding free energy” value was determined as 0.502 kJ/mol.
CTCTTCACGTGGGGTT: the “relative binding free energy” value was found to be 0.669 kJ/mol.
In the case of TTGTTCACGTGCTTTG, the “relative binding free energy” value amounted to 0.669 kJ/mol.
Turning to ATGGTCACGTGTTATA, the “relative binding free energy” value was 0.209 kJ/mol.
Take GTCGGCACGTGCAGTG: the “relative binding free energy” value is 0 kJ/mol.
As for GAGTGCACGTGCTGTT, the figure is -0.0418 kJ/mol; as for AGTTTCACGTGCCTGT, 1 kJ/mol.
As to TAGGGCACGTGATAAG, the “relative binding free energy” value was -0.377 kJ/mol.
The figure for CTCTTCACGTGTGGGT is 0.92 kJ/mol.
As for TTTTTCACGTGCATCT, the figure is 0.962 kJ/mol; as for TGAGACACGTGTTGAC, 1 kJ/mol.
Regarding GTTCTCACGTGAAGTG, the “relative binding free energy” value was determined as 1.42 kJ/mol.
The figure for GGGTGCACGTGGTCTA is -0.377 kJ/mol; for ACGGGCACGTGAGGTA it is 0.377 kJ/mol; for TTTGTCACGTGTTTGG it is 0.628 kJ/mol.
Consider TTGCACACGTGGGGTG, for which the “relative binding free energy” value was -0.544 kJ/mol.
For the sequence TGGTACACGTGGTACA, the “relative binding free energy” value was found to be 0.209 kJ/mol.
The figure for GTGTACACGTGGGAAA is -0.377 kJ/mol.
Turning to CTGTACACGTGTGGAG, the “relative binding free energy” value is 0.251 kJ/mol.
For AGATGCACGTGGCGGT, the “relative binding free energy” value was -0.879 kJ/mol.
With TTACGCACGTGTGGTG, the “relative binding free energy” value is -0.628 kJ/mol.
On to CTGGTCACGTGTTTTC, for which the “relative binding free energy” value turned out to be 0.795 kJ/mol.
The figure for TTGTTCACGTGACTGG is 0.92 kJ/mol; for CGGTGCACGTGGAAGT it is -0.251 kJ/mol; for TGGCGCACGTGATTAG it is -0.0418 kJ/mol.
As for GTTGACACGTGTGGCT, the “relative binding free energy” value is 0.46 kJ/mol.
Turning to TTGAACACGTGTATAT, the “relative binding free energy” value stood at 0.335 kJ/mol.
On to ATGGACACGTGTTGGT, for which the “relative binding free energy” value worked out at 0.293 kJ/mol.
Consider TGTGACACGTGTTTTG, for which the “relative binding free energy” value amounted to 0.502 kJ/mol.
The figure for TGTTGCACGTGTTGTA is 0.167 kJ/mol; for TGTGCCACGTGAGGAT it is 0.335 kJ/mol; for TGAGACACGTGTTTGA it is -0.628 kJ/mol.
Consider TAGTGCACGTGAGTGA, for which the “relative binding free energy” value stood at 0.293 kJ/mol.
As for TTTGGCACGTGAGCGT, the “relative binding free energy” value is -0.0418 kJ/mol.
Regarding GATGTCACGTGCGAGG, the “relative binding free energy” value was 0 kJ/mol.
As for AACGTCACGTGTTATT, the “relative binding free energy” value came out at 0.837 kJ/mol.
In the case of GTCCACACGTGGGGTG, the “relative binding free energy” value is 0.126 kJ/mol.
Turning to AATGGCACGTGGGGCA, the “relative binding free energy” value is -0.795 kJ/mol.
The figure for GGGACCACGTGTGTTT is 0.628 kJ/mol; for GAAAGCACGTGGGTGA it is -0.669 kJ/mol.
Regarding CAAGTCACGTGTAGTG, the “relative binding free energy” value was determined as 1.17 kJ/mol.
With AAAGGCACGTGAGGCT, the “relative binding free energy” value is 0.209 kJ/mol.
In the case of CGTTGCACGTGCTAGG, the “relative binding free energy” value was -0.418 kJ/mol.
Turning to TTTGTCACGTGCGGCG, the “relative binding free energy” value amounted to 0 kJ/mol.
With GTGGTCACGTGTCAAG, the “relative binding free energy” value was found to be 0.837 kJ/mol.
Regarding ATTCGCACGTGTGGAG, the “relative binding free energy” value was -0.335 kJ/mol.
Take TTTTGCACGTGATTCT: the “relative binding free energy” value was 0.335 kJ/mol.
As for ATGTGCACGTGCGCTT, the figure is -0.46 kJ/mol.
For the sequence AGTATCACGTGTAGAG, the “relative binding free energy” value was 0.669 kJ/mol.
As for GTATGCACGTGACGTG, the figure is 0.502 kJ/mol.
GTAGTCACGTGAGCGG: the “relative binding free energy” value amounted to 1.76 kJ/mol.
The figure for ATCGTCACGTGCGGTG is 0.209 kJ/mol; for TGATACACGTGCATGT it is 0.167 kJ/mol; for GTCGTCACGTGGTGTT it is 0.418 kJ/mol.
Regarding GGGTGCACGTGGATAC, the “relative binding free energy” value is 0.0837 kJ/mol.
In the case of GGGCGCACGTGGTGGT, the “relative binding free energy” value was -0.418 kJ/mol.
Turning to ACATGCACGTGGTGCG, the “relative binding free energy” value is -0.0418 kJ/mol.
For CACTTCACGTGTTGGG, the “relative binding free energy” value was found to be 1.21 kJ/mol.
Regarding GGGTGCACGTGGACTT, the “relative binding free energy” value worked out at 0.0418 kJ/mol.
The figure for AAGGTCACGTGGTTGG is 0.753 kJ/mol; for TGTGGCACGTGTGATT it is 0.753 kJ/mol.
The figure for AGGTTCACGTGGGCTG is 0.92 kJ/mol.
As for TGCTTCACGTGGACGG, the figure is 1.38 kJ/mol.
Take AAGATCACGTGTGGCT: the “relative binding free energy” value came out at 0.837 kJ/mol.
The figure for GGTTCCACGTGGCTGG is -0.126 kJ/mol; for ATCAACACGTGGGGGT it is -0.795 kJ/mol; for TGGGACACGTGATTAT it is 0.251 kJ/mol.
The figure for ATAATCACGTGTATGT is 0.502 kJ/mol.
As for GTAGGCACGTGGAGCT, the “relative binding free energy” value was -0.544 kJ/mol.
As to TGTTTCACGTGCATTG, the “relative binding free energy” value came to 0.795 kJ/mol.
Turning to GAATACACGTGTGTTT, the “relative binding free energy” value came out at 0.251 kJ/mol.
The figure for GGAGGCACGTGAGAAT is 0.628 kJ/mol.
As to TCGAGCACGTGAGGTA, the “relative binding free energy” value amounted to 0.586 kJ/mol.
AGACGCACGTGTTGGG: the “relative binding free energy” value is -0.0837 kJ/mol.
As for ACTGGCACGTGTTGTT, the “relative binding free energy” value turned out to be 0.126 kJ/mol.
TATTGCACGTGTGTCG: the “relative binding free energy” value was -0.167 kJ/mol.
GGTGGCACGTGTACCG: the “relative binding free energy” value turned out to be 0.251 kJ/mol.
Consider CTGGACACGTGGAGGG, for which the “relative binding free energy” value was found to be 0 kJ/mol.
As to GCTTTCACGTGGTGTT, the “relative binding free energy” value is 0.879 kJ/mol.
In the case of GAGCTCACGTGGGTAG, the “relative binding free energy” value turned out to be 0.669 kJ/mol.
Consider TTGAACACGTGGGACG, for which the “relative binding free energy” value was 0.167 kJ/mol.
The figure for TCGGGCACGTGGGTTC is -0.753 kJ/mol.
For TTAATCACGTGTTAAG, the “relative binding free energy” value worked out at 0.544 kJ/mol.
As for GGTTACACGTGTGTTC, the “relative binding free energy” value turned out to be 1.51 kJ/mol.
Take TGGTACACGTGGTGGC: the “relative binding free energy” value was -0.167 kJ/mol.
